# Laboratory results as given in article PMC4336329 (PLoS ONE, 2015).
# In all, about 310,000 compounds went through this assay and about 14,000 (4.5%) showed an effect of 50% or more. The effect is printed as a negative number. Some of the results follow.
# Molecular target: human ether-à-go-go-related gene (hERG) potassium channel (human, UniProt Q12809)
# Assay: primary screen, population patch clamp on CHO cells stably expressing hERG
# 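Further: peak tail current of the secondary pulse compared with the same well before compound.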
# Chain of human ether-à-go-go-related gene (hERG) potassium channel (Q12809 whole entry, looked up): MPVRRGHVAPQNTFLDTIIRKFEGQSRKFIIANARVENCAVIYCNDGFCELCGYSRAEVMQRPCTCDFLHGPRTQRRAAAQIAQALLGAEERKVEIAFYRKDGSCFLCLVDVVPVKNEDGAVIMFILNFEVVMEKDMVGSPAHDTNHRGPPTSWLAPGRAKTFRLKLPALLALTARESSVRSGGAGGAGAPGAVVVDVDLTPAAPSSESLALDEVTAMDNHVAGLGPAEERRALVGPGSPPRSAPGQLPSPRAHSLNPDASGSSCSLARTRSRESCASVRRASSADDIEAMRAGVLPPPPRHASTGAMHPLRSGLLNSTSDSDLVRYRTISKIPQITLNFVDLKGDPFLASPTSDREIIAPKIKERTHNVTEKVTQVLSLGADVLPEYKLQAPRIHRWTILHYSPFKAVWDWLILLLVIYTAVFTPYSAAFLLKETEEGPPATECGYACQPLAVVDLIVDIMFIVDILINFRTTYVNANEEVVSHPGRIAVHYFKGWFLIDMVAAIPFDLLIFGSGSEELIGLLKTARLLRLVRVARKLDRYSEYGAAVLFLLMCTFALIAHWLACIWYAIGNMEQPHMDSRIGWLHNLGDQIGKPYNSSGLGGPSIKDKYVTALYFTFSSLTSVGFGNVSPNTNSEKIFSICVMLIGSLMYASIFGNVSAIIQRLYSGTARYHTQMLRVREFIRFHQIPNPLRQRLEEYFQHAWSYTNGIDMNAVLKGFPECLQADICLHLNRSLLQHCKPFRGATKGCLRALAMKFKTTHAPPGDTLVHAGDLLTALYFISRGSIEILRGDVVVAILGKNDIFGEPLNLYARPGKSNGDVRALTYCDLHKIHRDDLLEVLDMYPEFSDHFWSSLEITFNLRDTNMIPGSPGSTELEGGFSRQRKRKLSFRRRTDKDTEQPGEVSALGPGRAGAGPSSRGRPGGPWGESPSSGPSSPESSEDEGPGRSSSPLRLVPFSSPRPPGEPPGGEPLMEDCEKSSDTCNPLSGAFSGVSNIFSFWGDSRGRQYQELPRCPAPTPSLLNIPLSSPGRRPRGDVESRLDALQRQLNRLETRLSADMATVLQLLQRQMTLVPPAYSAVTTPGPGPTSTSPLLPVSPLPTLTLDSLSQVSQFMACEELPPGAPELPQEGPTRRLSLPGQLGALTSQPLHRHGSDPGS
row,SMILES,"hERG current change (%, negative = inhibition) at 10uM [%]"
1,COc1ccc(-n2nc(C(=O)O)c3ccccc3c2=O)c(OC)c1,-1.56
2,O=C(Nc1ccc2c(c1)OCCO2)C1CCCN1C(=O)Nc1ccccc1 (stereo not drawn),14.2
3,Cc1ccccc1-c1nc(CS(=O)(=O)CC(=O)NCCCN2CCCC2)c(C)o1,-3.85
4,COc1ccc2c(C)cc(SCC(=O)Nc3c(C)n(C)n(-c4ccccc4)c3=O)nc2c1,-20.9
5,COC1=C/C(=C/c2c(N)n3nc(CC(=O)N4CCOCC4)sc3nc2=O)C=CC1=O,4.52
6,O=C(c1cccnc1)N1CCCc2ccccc21,3.12
7,Cc1ccn(S(=O)(=O)c2ccc(C(C)(C)C)cc2)n1,-14.6
8,CCOC(=O)CSc1nc(-c2ccc(OC)cc2)ns1,5.11
9,CCCCCCCCc1nc(SCC(C)=O)n[nH]1,3.83
10,Cc1ccc(S(=O)(=O)N2CCC(C(=O)Nc3ccccc3N3CCCCC3)CC2)cc1,7.81
11,O=C(CNC(=O)c1ccccc1F)Nc1ccc2c(c1)CCC2,13.7
12,CCCCn1c(N)c(N(CCOC)C(=O)c2ccc(N(C)S(=O)(=O)c3ccc(C)cc3)cc2)c(=O)[nH]c1=O,3.32
13,O=C(NCc1ccco1)c1cnn2cccnc12,6.05
14,CSCCC(NC(=O)c1ccc(C(C)(C)C)cc1)C(=O)OCC(=O)N1CCCC1=O (stereo not drawn),-18.7
15,CC(C)[C@H]1COCCS(=O)(=O)N1Cc1ccccc1,21
16,CC(C)C[C@H](N)c1nnc(SCc2ccc(Cl)cc2)o1.Cl,-1.59
17,O=C(OCc1ccccc1)C1=NNC2C(=O)N(c3ccc(Br)cc3)C(=O)C12 (stereo not drawn),-0.364
18,CO/N=C\C(=N\Nc1ccc(OC)cc1)C(=O)c1ccccc1,10.1
19,Cc1ccc(S(=O)(=O)NCCSc2nnnn2C)cc1,-2.53
20,C=C(C)C1CC=C(C)/C(=N/NC(=O)COc2cccc(C)c2)C1 (stereo not drawn),-19.6
21,CCn1c(C(C)NC(=O)c2ccc(Cl)cc2)n[nH]c1=S (stereo not drawn),-12.8
22,O=C(NCCSc1ccccc1)c1ccc(CN2CCOCC2)cc1,-10.3

row,SMILES,"hERG current change (%, negative = inhibition) at 10uM [%]"
1,CCc1cc(C(=O)NNC(=S)NCC2CCCO2)cs1 (stereo not drawn),-18.8
2,COc1cc([C@@H]2c3cc4c(cc3[C@H](O)[C@H]3COC(=O)[C@H]23)OCO4)cc(OC)c1OC,-44.8
3,COc1cc2c(cc1NC(=S)Nc1ccccc1C)oc1ccccc12,4.75
4,CC(C)NC(=O)c1ccccc1NC(=O)Cc1ccc(Cl)cc1,-11.3
5,CSc1sc(C(=O)OC(C)C)c2c1C(=O)CC(C)(C)C2,8.83
6,Cn1c(CN2CCOCC2)nnc1SCc1cccc(F)c1,4.72
7,COc1ccc(NC(=O)C/C(C)=N/NC(=O)c2cnccn2)cc1Cl,12.5
8,O=C(NCC1CCCO1)C(c1cccs1)N(Cc1cccs1)C(=O)Cn1nnc(-c2cccs2)n1 (stereo not drawn),-25.5
9,CC(NC(=O)c1ccc(C23CC4CC(CC(C4)C2)C3)cc1)C(=O)O (stereo not drawn),19.7
10,O=C(CSc1nnc(NCc2ccccc2)s1)NC1CCS(=O)(=O)C1 (stereo not drawn),10.1
11,CCOC(=O)C1CCCN(C(=O)c2cc3cc4ccc(OC)cc4nc3o2)C1 (stereo not drawn),-40.1
12,Cc1cc(C(=O)NC2CCCc3c2cnn3-c2cccc(C)c2C)c(C)o1 (stereo not drawn),-1.08
13,Cc1ccc(CN2C(=O)CCC2C(=O)NCc2ccc3c(c2)OCO3)cc1 (stereo not drawn),-17.4
14,CCn1nnnc1NC(=O)c1cc(Cl)c(OC)c(Cl)c1,-7.3
15,Cc1cc(C(=O)Nc2cccc3cccnc23)ccc1[N+](=O)[O-],11.6
16,CN(C)S(=O)(=O)c1cccc(NC(=O)CSc2cccc3cccnc23)c1,-0.148
17,Cc1[nH]n(C)c(=O)c1[N+](=O)[O-],-16.4
18,COc1ccc(CC(=O)N(C)CC(=O)Nc2ccccc2Cl)cc1S(=O)(=O)N1CCOCC1,7.82
19,CN(C)c1ccc(S(=O)(=O)NCC(=O)NCCC2=CCCCC2)cc1[N+](=O)[O-],-6.88
20,Cc1ccc(C)c(OC(=O)c2cccc(S(=O)(=O)N3CCN(C)CC3)c2)c1,2.1
21,CC1CC(C)CN(S(=O)(=O)c2ccc3c(c2)NC(=O)C(C)C(=O)N3)C1 (stereo not drawn),2.63
22,CCOc1ccc(-c2nnc(-c3cccs3)o2)cc1OCC,1.32

row,SMILES,"hERG current change (%, negative = inhibition) at 10uM [%]"
1,Fc1cccc(Cl)c1Cn1nnc2c(NCc3ccccn3)ncnc21,-15.7
2,O=C(CSCc1cnn(-c2ccccc2)c1-n1cccc1)NCc1ccccn1,-21.4
3,CCN(CC)CCNC(=O)C1c2cc(OC)c(OC)cc2C(=O)N(C)C1c1cccs1 (stereo not drawn),-1.87
4,O=C(COC(=O)c1ccc(S(=O)(=O)N2CCCC2)cc1)NCc1ccccc1,8.07
5,O=C(O)c1cccnc1SCc1cn2cc(Cl)ccc2n1,10.7
6,COc1ccc(OCc2cc(C(=O)N3CCCC(CO)C3)no2)c2ccccc12 (stereo not drawn),-13.8
7,Cc1cc(C)c(N2C(=NC(=O)CCCC(=O)O)SC3CS(=O)(=O)CC32)c(C)c1 (stereo not drawn),16.4
8,CCc1ccc(C(=O)COC(=O)CNC(=O)CNS(=O)(=O)c2ccccc2)cc1,-16.5
9,CC(=O)NCc1ccc(C(=O)O)cc1,6.67
10,O=C(O)c1ccc2c(=O)n(-c3ccccc3)c(=S)[nH]c2c1,3.07
11,CCN(CC)C(=O)CSc1nc2cc3c(cc2c(=O)n1Cc1ccc2c(c1)OCO2)OCO3,9.13
12,COc1ccc(Nc2nc(-c3cccc([N+](=O)[O-])c3)nc3ccccc23)c(OC)c1,15
13,O=c1oc2ccccc2n1CCn1c2ccccc2c2nc3ccccc3nc21,10.7
14,COc1ccc(C)cc1NC(=O)CN(C)S(=O)(=O)c1cccs1,-10.3
15,CC(Sc1nn(-c2ccc(F)cc2)c(=S)s1)C(=O)c1c(N)n(C)c(=O)n(C)c1=O (stereo not drawn),6.76
16,Cc1[nH]n(-c2ccccc2)c(=O)c1C=Nc1ccc(S(=O)(=O)N(C)C)cc1,9.37
17,Cc1ccc2cc(CN(Cc3cccs3)C(=O)c3ccco3)c3nnnn3c2c1C,0.583
18,CC(C(=O)OCC(=O)c1ccc([N+](=O)[O-])cc1)N1C(=O)C2C3CCC(C3)C2C1=O (stereo not drawn),-54
19,N#Cc1ccc2ccn(CC(=O)N3CCCc4ccccc43)c2c1,-7.51
20,COc1ccc(NC(=O)CN(C)C(=O)c2cn(-c3ccccc3)nc2-c2cccs2)cc1,-5.02
21,COc1ccc(Cc2noc(-c3ccc([N+](=O)[O-])cc3)n2)cc1OC,3.29
22,Cn1c(CO)nc2cc(N)ccc21,1.22

row,SMILES,"hERG current change (%, negative = inhibition) at 10uM [%]"
1,CCCOC(=O)C1=C(C)NC2=C(C(=O)C(C(=O)OC)C(C)C2)C1c1ccc(N(C)C)cc1 (stereo not drawn),-17.4
2,CCC(=O)OC1(C)C(=O)C=C2C=C(CCCC(=O)OC)OC=C2C1=O (stereo not drawn),11.5
3,Cc1ccc2nc(-c3ccc(-c4cccc(Cl)c4)cc3)c(NCc3ccccc3)n2c1.O=C(O)C(F)(F)F,-1.52
4,Cc1ccc(-n2ncc(C#N)c2/N=C/N2CCN(C)CC2)cc1,-13.8
5,COc1cc2c(cc1OC)C(C)N(CCc1ccc(Cl)cc1)CC2.O=C(O)/C=C\C(=O)O (stereo not drawn),-70.2
6,COCCCC1CCN(C(=O)C2CCC(=O)N(CCc3ccccc3)C2)CC1 (stereo not drawn),-19.5
7,Cc1cc2c(N3CCCCC3C)ncnc2s1 (stereo not drawn),-16.3
8,CSc1ccccc1NC(=O)CN(c1cccc(C)c1)S(C)(=O)=O,0.894
9,CSCCC(=O)Nc1ccc(C(C)=O)cc1,3.37
10,COc1ccccc1-c1ccc(SCc2ccc([N+](=O)[O-])cc2)nn1,-1.95
11,CCOC(=O)C1(CCOc2ccccc2)CCN(Cc2ccc(O)c(OC)c2)CC1,-75.4
12,COc1ccc(OC)c(/C=C/C(=O)Nc2ccc(OC)nc2)c1,-14.7
13,Cc1nc(N)ncc1C(=O)Nc1ccccc1,14.5
14,O=C(COC(=O)c1ccc(C(F)(F)F)cc1)Nc1cccc(S(=O)(=O)N2CCCCC2)c1,10.2
15,Cc1ccc(NC(=O)CCS(=O)(=O)c2cccc3nonc23)cc1,-11.5
16,C=C(C)[C@@H]1CC=C(CN2CCC(CCOC)(C(=O)OCC)CC2)CC1,-64.7
17,NS(=O)(=O)c1cc(C(=O)OCC(=O)N2CCOCC2)ccc1Cl,23.1
18,CCCNC(=O)[C@H](C)NC(=O)c1ccc(Br)cc1,12.6
19,CC1CCCC(NC(=O)CCS(=O)(=O)c2cc3c(cc2Cl)NC(=O)CO3)C1C (stereo not drawn),-49.5
20,COc1cccc(CNC(=O)C2CCN(S(=O)(=O)c3cccc4cccnc34)CC2)c1,-2.43
21,CC1CCCCN1C(=S)NCCc1ccccc1 (stereo not drawn),-5.4
